Measurements reported in PubChem BioAssay AID652104 (National Center for Advancing Translational Sciences (NCATS), 2013).
Hit rate of the full screen: of about 410,000 compounds, about 7,200 (1.8%) were called active. The shares of active, inactive and inconclusive entries below differ from those in the screen. Calls come from the whole dose curve; as a rule, active = well fitted activation curve with a large enough effect; inconclusive = small, poorly fitted or top-dose-only effect, or another doubt; inactive = no such curve, though single readings can be large or run the other way. No potency is given beside an inconclusive call; the fits are too rough.

Experiment: qHTS of TDP-43 Inhibitors; note: nearly all actives have a fitted effect of over 50% in size
Conditions: TDP-43 expressing yeast growth rescue, BacTiter-Glo, 24 h; series mostly up to 46.1 µM
In short: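 Galactose-induced TDP-43 yeast, OD600=0.02, compound pinned; 24 hr, 30 deg C; BacTiter-Glo luminescence for growth. Inhibitors of TDP-43 toxicity read as activators.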
Potency is the fitted concentration of half-maximal effect; tags give direction and shape of the fitted curve.

Row | SMILES | Potency
1 | CC(=O)c1cccc(NC(=O)c2nc3ccccc3nc2N2CCCCC2)c1 | inconclusive [activator, single point]
2 | CN(C(=O)c1cc2c(=O)n3ccccc3nc2n1C)c1ccccc1 | inconclusive [activator, full curve]
3 | CN1CCN(C(=O)c2ccc(OCCOc3ccccc3)cc2)CC1 | inconclusive [activator, partial curve]
4 | N/C(Cc1ccc([N+](=O)[O-])cc1)=N\OC(=O)c1cccc(Br)c1 | inactive
5 | S=C1NCCc2ccc(Cl)cc2C1c1ccccc1Cl (centres undefined) | inconclusive [activator, single point]
6 | Cc1cccc(-c2nc(CS(=O)CC(=O)NC3CCCC(C)C3C)c(C)o2)c1 (centres undefined) | inconclusive [activator, partial curve]
7 | Cc1cc(Cl)ccc1C(=O)C1CCCN(C(=O)c2cnn(C(C)C)c2)C1 (centres undefined) | inactive
8 | O=C(CSc1nccn1Cc1ccccc1)Nc1ccc2c(c1)OCO2 | inconclusive [activator, full curve, poor fit]
9 | COc1ccc(OC)c(-c2nn(-c3ccccc3)cc2C(=O)N2CCc3ccccc3C2)c1 | active: 12.6 µM
10 | O=C(NCC1CC1)C1Cc2c(-c3ccccc3Oc3ccccc3)ccnc2O1 (centres undefined) | inconclusive [activator, partial curve, poor fit]
11 | O=c1c(C(c2nnnn2C2CCCCC2)N2CCCCC2)coc2ccc(Cl)cc12 (centres undefined) | inconclusive [activator, partial curve]
12 | O=C(CCCOc1ccccc1)N1CCN(c2ccc(F)cc2)CC1 | inconclusive [activator, single point]
13 | Cc1ccc(N2C(=O)C3C4C=CC(CNC(=S)N5CCN(c6ccccc6)CC5)(O4)C3C2=O)cc1 (centres undefined) | inconclusive [activator, partial curve]
14 | COCCCNc1ccn2nc(-c3cccc(OCc4ccccc4)c3)cc2n1 | inconclusive [activator, single point]
15 | O=C(CCl)NCc1cc(-c2ccc(Cl)cc2)no1 | active: 10 µM
16 | CN(/N=C/c1cc(Br)cc(Br)c1O)c1cccc(C(F)(F)F)n1 | inconclusive [activator, single point]
17 | N#Cc1ncc(Cc2ccccc2)nc1C#N | active: 14.1 µM
18 | c1coc(CN(Cc2ccco2)c2ncnc3c2oc2ccccc23)c1 | active: 20 µM
19 | CCc1cnc2c(c1SCC(=O)N1CCC(C)CC1)c(=O)n(C)c(=O)n2C | inactive
20 | CCOC(=O)N1CCN(C(=O)C(C)(C)Oc2ccc(Cl)cc2)CC1 | inconclusive [activator, partial curve]
21 | COCCNc1nc2c(c(=O)n(C)c(=O)n2C)n1CCCc1ccccc1 | inconclusive [activator, full curve, poor fit]
22 | Cc1ccc(CS/C(Nc2ccccc2C)=C(\C#N)C(N)=O)c(C)c1 | inconclusive [activator, partial curve]

Row | SMILES | Potency
23 | CCCCCCCc1nn2c(=O)cc(O)nc2s1 | inactive
24 | CCNC(=S)N/N=C/c1ccco1 | inconclusive [activator, partial curve]
25 | Cc1cccc(-n2nnc3c(=O)n(Cc4ccccn4)cnc32)c1 | inconclusive [activator, single point]
26 | O=S(=O)(c1ccccc1)N1N=C(c2ccc(Br)cc2)CC1c1ccco1 (centres undefined) | inconclusive [activator, single point]
27 | O=C(Nc1nnc(-c2ccccc2)o1)c1nc2ccccc2s1 | inconclusive [activator, partial curve]
28 | COc1ccc(NC(=O)N2CCCC(c3nc(-c4ccc(F)cc4)no3)C2)cc1 (centres undefined) | inactive
29 | CCOC(=O)c1c(S(=O)(=O)N2CCC(C(=O)Nc3ccc(OCC)cc3)CC2)c(C)n(C)c1C | inactive
30 | COc1ccc(-c2coc3c(C(=O)NCCc4ccccc4)cccc23)c(C)c1 | inconclusive [activator, partial curve]
31 | Cc1ccc(OCCn2nnc3ccccc32)cc1C | inconclusive [activator, single point]
32 | Cc1cc(C)c(NC(=O)/C(=C/c2ccco2)c2ccccc2)c(C)c1 | inconclusive [activator, single point]
33 | Cc1ccccc1NC(=O)Cc1nc(COC(=O)CC(C)c2ccccc2)cs1 (centres undefined) | inconclusive [activator, single point]
34 | CC1(C)Cc2nc3scc(NC(=O)c4ccccc4)c3cc2CO1 | inconclusive [activator, partial curve]
35 | O=C(Oc1oc(-c2ccco2)nc1C=Nc1ccccc1)c1ccoc1 | inactive
36 | CCCCC(=O)OC1=C(C(=O)c2ccccc2)N(CC)S(=O)(=O)c2ccccc21 | active: 15.8 µM
37 | CC(C)n1c(C(=O)OCC(=O)NCc2ccc3c(c2)OCO3)cc2occc21 | inconclusive [activator, single point]
38 | O=C(NCc1ccccc1)c1ccc(NC(=O)C2CCCCC2)cc1 | inactive
39 | O=C(c1cccc(C(F)(F)F)c1)N1CCN(S(=O)(=O)c2ccc(Cl)s2)CC1 | inconclusive [activator, partial curve]
40 | Cc1ccc(NC(=O)CCN2C(=O)c3cccc([N+](=O)[O-])c3C2=O)c(Br)c1 | inconclusive [activator, partial curve]
41 | Cc1ccccc1-c1cc2nc(NCc3cccnc3)n(C)c(=O)c2s1 | inactive
42 | CN(CC(=O)Nc1ccc(Cl)c(C(F)(F)F)c1)C(=O)c1ccccc1SCC(=O)N1CCCC1 | inconclusive [activator, partial curve, poor fit]
43 | CN1OC[C@@H]2CN(Cc3cc(Cl)cc(Cl)c3)[C@H](c3cccc(-c4ccccc4)c3)C[C@@H]21 | inconclusive [activator, partial curve]
44 | CCOc1ccccc1NC(=O)CN1c2ccccc2S(=O)(=O)c2ccccc21 | inactive
